Results as given in patent publication US20260167693A1 (ANGELES THERAPEUTICS, published 2026).

Target: T1, CD19-ECD-GGSG-NLuc-AcV5 (human)
T1 construct: also called CD19-GGSG-NLuc-AcV5; Flag-CD19-GGSG-NLuc-AcV5
T1 chain: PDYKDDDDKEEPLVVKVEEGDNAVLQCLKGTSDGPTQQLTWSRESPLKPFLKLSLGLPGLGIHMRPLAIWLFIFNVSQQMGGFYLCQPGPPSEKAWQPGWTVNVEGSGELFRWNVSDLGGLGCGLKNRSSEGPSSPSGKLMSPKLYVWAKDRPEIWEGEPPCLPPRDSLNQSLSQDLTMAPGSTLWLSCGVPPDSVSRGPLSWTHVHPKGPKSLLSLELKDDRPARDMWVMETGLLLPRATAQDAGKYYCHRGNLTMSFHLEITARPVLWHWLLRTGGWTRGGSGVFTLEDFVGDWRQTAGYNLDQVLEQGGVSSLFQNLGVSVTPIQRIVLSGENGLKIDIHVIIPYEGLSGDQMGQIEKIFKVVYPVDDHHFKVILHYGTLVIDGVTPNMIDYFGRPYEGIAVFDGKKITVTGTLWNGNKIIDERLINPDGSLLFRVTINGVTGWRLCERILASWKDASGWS
Assay: NLuc binding assay, SIR on Jurkat-NFAT-GFP cells

B1: CD8SP-FMC63-vL-TCRb-S57C-ECD-Bam-CD3zECDTMCP-opt-F-P2A-SP-FMC63-vH-hTCRa-T48C-ECDn-CD3zECDTMCP-opt2-F-F2A-PAC (other)
TCR beta: DIQMTQTTSSLSASLGDRVTISCRASQDISKYLNWYQQKPDGTVKLLIYHTSRLHSGVPSRFSGSGSGTDYSLTISNLEQEDIATYFCQQGNTLPYTFGGGTKLEITEDLKNVFPPEVAVFEPSEAEISHTQKATLVCLATGFYPDHVELSWWVNGKEVHSGVCTDPQPLKEQPALNDSRYCLSSRLRVSATFWQNPRNHFRCQVQFYGLSENDEWTQDRAKPVTQIVSAEAWGRADCGS[… about 150 residues …]
TCR alpha: EVKLQESGPGLVAPSQSLSVTCTVSGVSLPDYGVSWIRQPPRKGLEWLGVIWGSETTYYNSALKSRLTIIKDNSKSQVFLKMNSLQTDDTAIYYCAKHYYYGGSYAMDYWGQGTSVTVSSIQNPDPAVYQLRDSKSSDKSVCLFTDFDSQTNVSQSKDSDVYITDKCVLDMRSMDFKSNSAVAWSNKSDFACANAFNNSIIPEDTFFPSPESSCGT[… about 150 residues …]
notes: Polyprotein PRT 12512; also called 042117-B01
  CD19-GGSG-NLuc (RLU): 6560 RLU
